# From publication PMC6919601, “Identification of Plasmodium dipeptidyl aminopeptidase allosteric inhibitors by high throughput screening” (PLoS ONE, 2019)
# About 230 (0.21%) of roughly 110,000 compounds showed an effect of 50% or more. The list shows a part of the results.
# Biological target: DPAP1 (Plasmodium falciparum, UniProt Q8IIJ9)
# Assay: primary screen, percent inhibition; read by cleavage of a fluorogenic dipeptide substrate; higher = more effect of the substance
# Parameters: species or system P. falciparum D10 trophozoite lysates; single well
# 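Further: 30 min substrate incubation versus DMSO and 10 µM JCP410 controls.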
# Sequence of DPAP1 (Q8IIJ9 whole entry, looked up): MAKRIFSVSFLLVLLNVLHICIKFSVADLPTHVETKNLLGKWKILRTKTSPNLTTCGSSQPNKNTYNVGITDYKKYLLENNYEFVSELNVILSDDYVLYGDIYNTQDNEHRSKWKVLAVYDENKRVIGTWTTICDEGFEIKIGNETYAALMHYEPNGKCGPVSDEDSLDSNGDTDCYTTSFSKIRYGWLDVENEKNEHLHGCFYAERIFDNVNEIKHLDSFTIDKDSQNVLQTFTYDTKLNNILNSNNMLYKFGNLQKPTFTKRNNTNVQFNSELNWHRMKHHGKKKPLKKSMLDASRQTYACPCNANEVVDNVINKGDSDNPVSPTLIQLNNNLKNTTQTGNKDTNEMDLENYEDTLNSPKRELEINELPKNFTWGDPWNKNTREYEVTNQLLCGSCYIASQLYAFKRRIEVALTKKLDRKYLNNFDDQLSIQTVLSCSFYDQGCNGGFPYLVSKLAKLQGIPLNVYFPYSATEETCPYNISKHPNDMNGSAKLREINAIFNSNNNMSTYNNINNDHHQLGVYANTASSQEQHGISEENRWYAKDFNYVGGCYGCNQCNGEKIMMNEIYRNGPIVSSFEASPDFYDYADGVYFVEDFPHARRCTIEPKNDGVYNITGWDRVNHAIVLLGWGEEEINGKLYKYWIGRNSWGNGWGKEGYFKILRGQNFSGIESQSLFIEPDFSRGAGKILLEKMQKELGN
row,Compound,% Inhibition @ 10 uM [%]
1,COc1ccc(-c2nnc3n(CCCOC(C)C)c(=O)c4ccccc4n23)cc1OC,0.00665
2,Cc1ccc(CCNC(=O)Nc2cn(CC(C)C)c(=O)c3ccccc23)cc1,5.23
3,CC(Cc1ccccc1F)N1CCCC(O)C1 (centres unmarked),-3.5
4,CCc1ccc(-c2cn3c(n2)sc2cc(C(=O)N4CCCC4)ccc23)cc1,4.85
5,O=C(O)C1CC=CCC1C(=O)Nc1ccc(N2CCN(Cc3ccccc3)CC2)cc1 (centres unmarked),-1.61
6,CN1C(=O)C(=Cc2cn(CC#N)c3ccccc23)C(=O)N(C)C1=O,-5.16
7,Cc1cccc(OCc2nnc(NC(=O)C34CC5CC(CC(C5)C3)C4)s2)c1,25.9
8,O=C(NC1CCCCCC1)C(Cc1ccccc1)NS(=O)(=O)c1cccc2nsnc12 (centres unmarked),3.63
9,CCOC(=O)c1c(NC(=O)CC)sc2c1CCC/C2=N/O,-6.68
10,COc1ccc(-n2c3c(c(=O)[nH]c2=O)C(NC(=O)c2cccc(Cl)c2)(C(F)(F)F)C(=O)N3)cc1 (centres unmarked),1.93
11,Cc1ccccc1CN1CCN(C2CCCC2)CC1,0.131
12,CCOc1ccc(C(=O)Nc2ccc(NC(=O)c3ccco3)c(OC)c2)cc1Br,-0.511
13,CNC1Cc2cc(Cl)ccc2Sc2ccccc21 (centres unmarked),-2.87
14,CC1(C)CC(=O)c2sc(N3CCCCC3)nc2C1,3.65
15,COc1ccc(/C=c2\sc3nc(-c4ccccc4)nn3c2=O)cc1,3.34
16,Cc1ccc(C(=O)NCC2CCCO2)cc1Br (centres unmarked),-0.425
17,Cc1ccc(C)c(S(=O)(=O)NCc2ccc(C(=O)NCc3ccccn3)cc2)c1,0.709
18,CCOC(=O)N1CCc2c(sc(N)c2C(=O)c2ccccc2Cl)C1,-0.68
19,COc1ccc(OC)c(NC(=O)c2cccc(Cl)c2)c1,-5.92
20,CCOc1ccccc1C(=O)Nc1c(C)cccc1C,-1.07
21,Cc1ccc2oc(=O)n(CCOc3ccccc3C)c2c1,-0.366
22,CCc1cc2c(=O)n(-c3ccc(Cl)c(Cl)c3)c(=O)[nH]c2s1,-2.51
23,CCCC(=O)Nc1ccc(Cl)c(NC(=O)c2ccc(OCC)cc2)c1,3.69
24,CCOc1ccc(NC(=O)CSc2nc3cc(C)ccc3cc2C#N)cc1,2.51
25,CN1CCN(C(=O)Cn2nc(-c3ccc(Cl)cc3)c3ccccc3c2=O)CC1,2.95
26,O=C(NCc1ccncc1)c1cccc(COc2ccc3c(c2)CCC3)c1,2.1

row,Compound,% Inhibition @ 10 uM [%]
1,O=C(O)Cn1ncn2nc(-c3cccs3)cc2c1=O,-1.6
2,O=C(Nc1cccc(Cl)c1)Nc1ccccc1OC(F)F,-2.77
3,COc1cccc(C(=O)NCc2ccccc2OC)c1,-4.43
4,Cc1ccccc1C1CC(=O)NC(SCc2ccccc2)=C1C#N (centres unmarked),-1.4
5,COc1ccccc1C1C2=C(O)CCCC2=NC(C)=C1C(=O)OCC1CCCO1 (centres unmarked),4.95
6,CN1CCC(N(CCO)Cc2ccccc2)CC1,-3.6
7,Cc1c(CNCCc2ccc(S(N)(=O)=O)cc2)c(C(=O)O)c(C)n1Cc1ccc(F)cc1,-11.3
8,O=C(NCCCCc1ccccc1)c1ccccc1F,-1.48
9,COc1ccc(OC)c(CCNC(=O)C2CCCN(c3nn4c(=O)cc(C)nc4s3)C2)c1 (centres unmarked),0.0882
10,COc1cc(CN(C(=S)NCC(=O)NCc2ccc(F)cc2)C2CCCC2)cc(OC)c1OC,-0.406
11,CCc1ccccc1-n1nnc(-c2nsc(NC(=O)c3cccs3)n2)c1C,0.224
12,COc1ccccc1CNC(=O)c1ccc(CS(=O)(=O)c2cccc(C(F)(F)F)c2)o1,-3.09
13,Cc1cc(C)c(S(=O)(=O)C(C)(C)C)c(C)c1,3.31
14,Cc1cc(NC(=O)CCCOc2ccc(Cl)cc2Cl)no1,-4.98
15,Cc1cc(NC(=O)c2nn(C)c3c2CSc2ccccc2-3)no1,4.86
16,CCOc1ccccc1Nc1nc(-c2ccc(Cl)cc2)c(C)s1,3.25
17,COc1cc2c(cc1/C=C1/NC(=O)N(c3cccc(Cl)c3)C1=O)OCO2,-11.5
18,O=C(NCC1CCCO1)c1cc2nc(-c3ccco3)cc(C(F)(F)F)n2n1 (centres unmarked),16.3
19,CC(C)CNS(=O)(=O)c1ccc(CCC(=O)Nc2c(F)cccc2F)cc1,-3.45
20,COc1ccccc1CNC(=O)Cn1ccc2cc(S(=O)(=O)N3CCCC3)ccc21,-4.85
21,CCOc1ccc2c(=O)c(Oc3ccc(OC)cc3)c(C(F)(F)F)oc2c1,0.528
22,O=C1NC(=O)/C(=C\c2ccc3ccccc3c2)S1,-1.15
23,CS(=O)(=O)n1nc(-c2ccc(Cl)cc2)nc1SCc1ccccc1,0.343
24,CC(C)Oc1ccc(C2N3CC4(C)CN2CC(c2ccccc2)(C3)C4=O)cc1 (centres unmarked),-8.78
25,CCN(CC)CCOC(=O)c1ccc(-n2cccc2)cc1,-0.403
26,CNC(=O)CCn1nc(-c2ccc(Cl)cc2)c2ccccc2c1=O,-10.9

row,Compound,% Inhibition @ 10 uM [%]
1,Cc1cccc(-n2nc3c(c2NC(=O)c2ccc(Cl)cc2)CS(=O)(=O)C3)c1C,5.9
2,COCC(=O)NC1(C(=O)NC2CCCC2)CCCCC1,0.512
3,COc1ccc(N(CC(=O)Nc2ccc(Br)cc2)S(C)(=O)=O)c(OC)c1,-3.25
4,O=C(c1ccccc1[N+](=O)[O-])N1CCc2ccccc2C1,2.13
5,COc1ccc(-c2noc(N3CC=C(c4ccccc4)CC3)n2)cc1,-8.92
6,CCN1CCN(Cc2c(Cl)cccc2Cl)CC1,-3.57
7,COc1ccc(OCCn2nnc3sc4c(c3c2=O)CCC(C)C4)cc1 (centres unmarked),2.41
8,CN1CCN(CCNC(=O)Cn2ncc3c4ccccc4n(C)c3c2=O)CC1,4.95
9,O=C1CCCN1CCCNc1ncnc2c1cnn2-c1ccccc1,2.4
10,CCN1CCN(c2ncnc3c2cnn3C)CC1,-4.46
11,CC(C)Cc1cc(-c2ccco2)c(C#N)c(N)n1,-2.42
12,CCOc1ccc(NC(=O)CC2Sc3ccccc3NC2=O)cc1 (centres unmarked),-2.17
13,CCCCNC(=O)c1cc2c(-c3ccccc3F)nn(C)c2s1,-3.23
14,Oc1nnc(NCc2nc3cccnc3[nH]2)c2ccccc12,1.22
15,COc1cc(C)c(-c2cc(C(=O)O)c(C)o2)cc1C(C)C,1.32
16,CC(C)CN1C(=O)c2ccccc2C(C(=O)NCC2CCCO2)C1c1cccs1 (centres unmarked),0.867
17,COc1cc(C(=O)N2CCN(Cc3ccc(Br)cc3)CC2)cc(OC)c1OC,-4.6
18,CCCC1=C(C(=O)OCC)C(c2ccc(Cl)cc2Cl)NC(=O)N1 (centres unmarked),0.0538
19,CCOc1ccc(C(=O)C[n+]2c(C)n(C)c3ccccc32)cc1,-2.41
20,COc1ccc(/C=C2\C(=O)NC(=O)N(c3ccccc3)C2=O)cc1,2.51
21,C/C(=N/O)c1ccc(NS(C)(=O)=O)cc1,-6.09
22,O=C(Nc1ccncc1)c1ccc(-n2nc(C(F)(F)F)c3c2CCCC3)cc1,0.323
23,CC(C)CNS(=O)(=O)c1ccc(CCC(=O)Nc2ccc(C(F)(F)F)cc2)cc1,2.82
24,CC(C)CCN1CC(C(=O)NC2CCCCCC2)CC1=O (centres unmarked),-3.12
25,CCSc1c(-c2ccccc2)nc2ccccc2c1C(=O)O,4.3
26,CCCN1CCC(NCCc2ccc(Cl)cc2Cl)CC1,-1.56

row,Compound,% Inhibition @ 10 uM [%]
1,Cc1c(C)n(CC(O)CNC(CO)(CO)CO)c2ccccc12 (centres unmarked),-1.81
2,O=C(CSc1nc(O)cc(-c2ccccc2)n1)N1CCc2ccccc2C1,3.91
3,Cc1oc(-c2ccccc2Cl)nc1CS(=O)(=O)CC(=O)NCCC1=CCCCC1,-6.52
4,CCCCSCCCNC(=O)c1ccc(CS(=O)(=O)c2ccc(Cl)cc2)o1,5.47
5,N=C(NOC(=O)COc1ccc(Cl)cc1Cl)c1ccccn1,0.484
6,Cc1ccc(-c2c(NCC3CCN(Cc4cccc(C)c4)CC3)c(=O)c2=O)cc1,-0.255
7,Cc1ccc(OCc2nc(-c3cccnc3)no2)c(Br)c1,-4.61
8,O=C(/C=C/c1ccccc1)Nc1ccc(C(=O)O)cc1,-4.94
9,COC(=O)C(Cc1c[nH]c2ccccc12)NC(=O)c1ccc(-c2ccccc2)cc1 (centres unmarked),1.7
10,CCN1CCN(c2nc3ccc(C(=O)c4ccccc4)cc3n3cnnc23)CC1,-6.58
11,CCN1C(=O)/C(=C\c2ccc(N(C)C)cc2)S/C1=N\c1ccccc1,0.00477
12,COc1cccc(-c2ccc3c(N)c(C(=O)Nc4ccc(C(C)=O)cc4)sc3n2)c1,10.1
13,CCOc1ccc(N2CC(C(=O)Nc3ccc(N(C)C)cc3)CC2=O)cc1 (centres unmarked),3.62
14,CN1CCN(C(=O)C2CC(c3ccc(F)cc3)=NO2)CC1 (centres unmarked),-0.431
15,N#CCSc1nc2ccccc2c(=O)n1-c1ccccc1,-7.16
16,Cc1c(C(=O)NCc2ccc(F)cc2)sc2nc3n(c(=O)c12)CCCCC3,-0.788
17,CCCCOc1ccc(C(=O)NC(C)C2COc3ccccc3O2)cc1 (centres unmarked),-1.06
18,CC(NC(=O)C1CCN(c2ncccn2)CC1)c1ccncc1 (centres unmarked),2.41
19,O=C(NCCc1ccc(Cl)cc1)c1cc(S(=O)(=O)N2CCCCC2)c[nH]1,-6.87
20,CC(C)C(Nc1c([N+](=O)[O-])cc(C(F)(F)F)cc1[N+](=O)[O-])C(=O)O (centres unmarked),-2.62
21,COc1ccc(-c2noc(-c3ccc(Cl)cc3Cl)n2)cc1,-0.48
22,Cc1c(C)n(C)c2ccc(C(=O)Nc3ccc(S(=O)(=O)N4CCCC4)cc3)cc12,-3.19
23,COCCCNC(=O)c1cc2c(=O)n3ccccc3nc2n(CC2CCCO2)c1=N (centres unmarked),-1.47
